Data taken from article PMC4336329 (PLoS ONE, 2015).
Among all 310,000 compounds or so, about 14,000 (4.5%) showed an effect of 50% or more. Effects have a minus sign here. The list shows a part of the results.

Target: human ether-à-go-go-related gene (hERG) potassium channel (human, UniProt Q12809)
Test: primary screen, population patch clamp on CHO cells stably expressing hERG
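Also: peak tail current of the secondary pulse compared with the same well before compound.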

Chain of human ether-à-go-go-related gene (hERG) potassium channel (Q12809 whole entry, looked up): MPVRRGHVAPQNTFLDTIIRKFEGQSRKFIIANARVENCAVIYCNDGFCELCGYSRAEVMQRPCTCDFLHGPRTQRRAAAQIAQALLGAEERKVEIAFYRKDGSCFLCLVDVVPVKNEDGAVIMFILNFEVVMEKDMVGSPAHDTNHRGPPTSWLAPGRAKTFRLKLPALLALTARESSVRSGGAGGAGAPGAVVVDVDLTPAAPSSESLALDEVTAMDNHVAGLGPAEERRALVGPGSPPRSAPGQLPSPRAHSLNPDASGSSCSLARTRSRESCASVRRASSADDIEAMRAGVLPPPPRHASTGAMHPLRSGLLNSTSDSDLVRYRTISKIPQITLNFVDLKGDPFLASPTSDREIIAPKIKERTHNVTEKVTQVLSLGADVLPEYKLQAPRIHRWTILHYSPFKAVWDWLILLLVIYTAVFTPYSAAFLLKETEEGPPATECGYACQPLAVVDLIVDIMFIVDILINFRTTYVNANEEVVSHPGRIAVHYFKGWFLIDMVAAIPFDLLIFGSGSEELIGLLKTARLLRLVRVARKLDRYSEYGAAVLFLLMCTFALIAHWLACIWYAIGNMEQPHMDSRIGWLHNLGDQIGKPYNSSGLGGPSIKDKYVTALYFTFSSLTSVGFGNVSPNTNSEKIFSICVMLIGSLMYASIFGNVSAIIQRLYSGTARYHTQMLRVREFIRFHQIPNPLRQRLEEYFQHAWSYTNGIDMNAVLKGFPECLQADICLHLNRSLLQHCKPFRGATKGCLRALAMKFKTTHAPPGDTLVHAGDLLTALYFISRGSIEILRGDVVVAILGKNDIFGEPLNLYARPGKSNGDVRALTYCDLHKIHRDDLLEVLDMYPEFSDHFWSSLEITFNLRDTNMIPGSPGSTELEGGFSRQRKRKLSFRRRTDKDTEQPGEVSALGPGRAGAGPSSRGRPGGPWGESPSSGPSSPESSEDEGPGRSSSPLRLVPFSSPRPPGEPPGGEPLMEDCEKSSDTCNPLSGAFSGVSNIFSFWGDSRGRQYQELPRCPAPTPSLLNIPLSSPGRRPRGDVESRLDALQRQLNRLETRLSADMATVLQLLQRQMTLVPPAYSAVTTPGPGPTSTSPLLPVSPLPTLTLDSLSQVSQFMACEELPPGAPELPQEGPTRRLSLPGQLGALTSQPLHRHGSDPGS

In order of rising “hERG current change (%, negative = inhibition) at 10uM” value:
1. O=S(=O)(c1ccc2c(c1)OCCO2)N1CCC(n2cnc3cc(F)ccc32)CC1  -62.4%
2. CCN(CC(=O)NCc1ccc(Cl)cc1)C(=O)CCC(=O)c1ccc(F)cc1  -61.9%
3. CCN(c1ccccc1)S(=O)(=O)c1ccc(C(=O)N(CCCN(C)C)c2nc3cc4c(cc3s2)OCO4)cc1.Cl  -57.4%
4. C=CCn1c(SCC(=O)Nc2c(C)n(C)n(-c3ccccc3)c2=O)nc2sc(C)c(-c3ccccc3)c2c1=O  -54%
5. O=C(c1cc(COc2ccc(F)cc2Cl)on1)N1CCCC(OCc2cccnc2)C1 (stereo not shown)  -53.5%
6. CCc1cc(=O)oc2c3c(cc(OCC(=O)NCCCn4ccnc4)c12)OC(C)(C)CC3  -51.1%
7. O=C(NCCC1CCCCN1S(=O)(=O)c1cccs1)C(=O)Nc1cccc(F)c1 (stereo not shown)  -50.1%
8. COc1cccc(NC(=O)CN(C)C(=O)CC(NC(=O)c2ccccc2Cl)c2ccccc2)c1 (stereo not shown)  -49.7%
9. COc1ccc(-c2[nH]ncc2CN2CCCOc3c(cccc3OC)C2)c(OC)c1  -48%
10. Cc1ccc(C(=O)c2ccccc2C(=O)OCC(=O)N2CC(C)CC(C)C2)cc1 (stereo not shown)  -46.7%
11. CCOCCCNC(=O)CCn1nc(-c2ccc(Cl)cc2)ccc1=O  -46.4%
12. CCn1c(CN2CCN(C(c3ccccc3)c3ccccc3)CC2)nc2c1c(=O)n(C)c(=O)n2C  -43.9%
13. OCC1CCCN(Cc2cn(Cc3ccccc3)nc2-c2cc3ccccc3o2)C1 (stereo not shown)  -41.9%
14. C#CCNC(=O)C1CCN(c2cc(C)nc(-c3ccccc3)n2)CC1  -40.7%
15. COc1ccnc2c1c(=O)n(Cc1c(F)cccc1Cl)c(=O)n2C  -34.8%
16. Cc1ccc2nc(N(CCCN(C)C)C(=O)c3ccc(S(=O)(=O)N4CCOCC4)cc3)sc2c1.Cl  -33.9%
17. CCn1c(CCNC(=O)c2ccc(F)cc2)nc2ccccc21  -33.9%
18. Cc1ccc(-c2nn(CC(=O)NCC3CCCO3)c(=O)c3ccccc23)cc1 (stereo not shown)  -30.5%
19. NNC(=O)[C@@H]1C[C@@H]1c1ccccc1  -24.6%
20. O=C1NC(Cc2c[nH]c3ccccc23)C(=O)N1CCOc1ccccc1 (stereo not shown)  -22.7%
21. C=CCN(CC=C)CCOc1ccccc1F.O=C(O)C(=O)O  -21.4%
22. Cc1nn(C)c(Cl)c1S(=O)(=O)N1CCC(CO)(CCc2ccccc2)CC1  -21.1%
23. C/C(=N\NC(=O)c1ccc(CSc2nncn2C)cc1)c1ccc(Cl)cc1  -17.8%
24. COc1cc(S(=O)(=O)N2CCCCCC2)ccc1-n1cnnn1  -16.9%
25. Brc1cnc(N2CCOCC2)nc1N1CCCCC1  -16.3%
26. CC(C)NC(=O)Cn1c(SCC(=O)NC2CCCC2)nc2ccccc21  -16.3%
27. CCc1ccc(C(=O)Nn2cnc3ccccc3c2=O)cc1  -12.1%
28. Cc1cccc(-n2cnc(C(=O)N/N=C\c3ccc(Br)cc3)c2)n1  -11.9%
29. C=CCN(CC=C)C(=O)c1c(OC)cccc1OC  -7.4%
30. CCOC(=O)C1CCN(S(=O)(=O)c2cc3c4c(c2)C(C)C(=O)N4CCC3)CC1 (stereo not shown)  -7.08%
31. CC1=CC(c2ccc(Cl)cc2)n2nc(N3C(=O)CCC3=O)nc2N1.O=C(O)CCC(=O)O (stereo not shown)  -6.98%
32. CCCCn1c(N)c(N(CCOC)C(=O)c2cc(-c3ccccc3Cl)nc3ccccc23)c(=O)[nH]c1=O  -5.76%
33. O=C(CCc1nc2ccccc2c(=O)[nH]1)NNC(=O)c1ccc(F)cc1  -5.41%
34. CC(C)NS(=O)(=O)c1cc(C(=O)O)ccc1Cl  -4.59%
35. CCN(CC)Cc1c(CC(C)C)oc(C)c1C(=O)O.Cl  -4.52%
36. COc1ccc(CN(C(=O)c2ccc(CN3CCOCC3)o2)C(C(=O)NCC2CCCO2)c2ccc(F)cc2)cc1 (stereo not shown)  -4.38%
37. COCc1nnc(NC(=O)CCCOc2ccccc2)s1  -2.55%
38. CC(OC(=O)Cn1cnc2c1c(=O)n(C)c(=O)n2C)C(=O)c1ccccc1 (stereo not shown)  -2.37%
39. Clc1ccccc1C1CC(c2ccccc2)Nc2ncnn21 (stereo not shown)  -2.22%
40. CCC(C)C(NC(=O)C1CCC(C)CC1)C(=O)NC(CCSC)C(=O)OC (stereo not shown)  -2.17%
41. Cc1ccc(C(=O)N/C(=C\c2cccnc2)C(=O)N2CCCC2)cc1  -1.72%
42. Cc1cc(NC(=O)CSCc2ccc([N+](=O)[O-])cc2)no1  -1.21%
43. CCOC(=O)CSc1cc(=O)n(C)c2cc(Cl)ccc12  -1.12%
44. OCC[C@H]1C[C@@H](O)[C@H](O)[C@]2(OCc3ccccc32)O1  -0.346%
45. CCOC(=O)C(NC(=O)N1CCCCC1)(c1ccccc1)C(F)(F)F (stereo not shown)  -0.306%
46. CCCC1CC(CSc2ncn[nH]2)OC1=O (stereo not shown)  -0.121%
47. COc1cc(NC(=O)c2cccnc2)c(Cl)cc1NC(=O)c1ccc(Cl)cc1  -0.00342%
48. COc1cc(C(=S)N2CCOCC2)ccc1OC(=O)c1ccccc1  0.478%
49. Cc1cccc(CCN2CCN=C2N(C)C)c1  0.575%
50. CCC(O)CNc1nc(SC)nc2sc3c(c12)CCN(C)C3 (stereo not shown)  0.847%
51. O=C(C1CCN(Cc2nc(Cc3cccc(F)c3)no2)CC1)N1CCOCC1  1.52%
52. CCC(C)n1c(SCC(=O)Nc2ccc3[nH]c(=O)[nH]c3c2)nc2ccccc2c1=O (stereo not shown)  1.69%
53. COC(=O)c1c(-c2ccccc2)noc1-c1ccccc1  2.19%
54. COC(=O)c1ccc(C(=O)NC2CCCc3c2cnn3-c2ccccc2F)nc1 (stereo not shown)  3.02%
55. COc1cccc(-c2ccc(SCc3ccccn3)nn2)c1  3.16%
56. Cc1noc(C)c1S(=O)(=O)N(CC(=O)Nc1ccc2c(c1)OCCO2)c1ccc(C(C)C)cc1  3.42%
57. CC(C)C(=O)Nc1ccc(NC(=O)c2cc3ccccc3o2)cc1  3.66%
58. O=C(COc1ccccc1F)N1CCCc2ccccc21  4.15%
59. Cc1occc(=O)c1OC(=O)Nc1ccccc1  4.17%
60. C/C(=N\Nc1cc(N2CCOCC2)ncn1)c1cccc([N+](=O)[O-])c1  4.5%
61. C[C@H](NC(N)=O)C(=O)Nc1ccc(OCc2ccccc2)cc1  6.97%
62. Cc1ccc(NC(=O)Cn2cc(C(=O)C3CC3)c3ccccc32)c(C)c1  7.84%
63. CCC(=O)N1CCc2cc(S(=O)(=O)Nc3ccc4c(c3)OCCO4)ccc21  10%
64. Cc1ccc(C(C)C)c(OCc2ccc(C(=O)N/N=C/c3ccc(O)cc3O)cc2)c1  10.9%
65. COc1cc(NC(=O)C2=CC(c3ccco3)=NS(=O)(=O)N2C)cc(OC)c1OC  11.2%
66. C/C(=N/NC(=O)C1CCCCC1)c1ccc([N+](=O)[O-])cc1  11.2%
67. CC(C)=NNC(=O)C1=NNC(=O)C1  12.3%
68. COc1ccc(Cl)cc1NC(=O)CN1CCc2ccccc2C1  12.8%
69. O=S(=O)(c1ccccc1)N1N=C(c2cccs2)CC1c1ccc(Br)cc1 (stereo not shown)  13.1%
70. CC(C)c1ccc(NC(=O)Cc2ccc(NC3=NC4CS(=O)(=O)CC4S3)cc2)cc1 (stereo not shown)  13.4%
71. CC1=C(Cl)C2=NS(=O)(=O)CCN2C=C1Cl  14.2%
72. COc1ccc(CC(=O)NCC2(c3ccc(OC)c(OC)c3)CCOCC2)cc1  14.3%
73. C=C(C)Cn1c(COc2ccccc2)nnc1SCC(=O)O  14.9%
74. O=C(NC1CCCC1)C1CCCN(S(=O)(=O)c2cnc[nH]2)C1 (stereo not shown)  15.3%
75. CCC(=O)Nc1ccc(Cl)c(NC(=S)NC(=O)c2ccco2)c1  15.5%
76. O=C(Cn1ccc(NC(=O)OCc2ccccc2)nc1=O)NCC1CCCO1 (stereo not shown)  16.7%
77. COc1ccc2c(c1)-c1c(ssc1=S)C(C)(C)N2C(=O)CSC1=NCCS1  16.7%
78. Cn1cc(C(=O)NS(=O)(=O)Nc2ccc(Br)cc2)c2ccccc21  17.4%
79. CNC(=O)c1ccc(OC2CSC2)cc1  19%
80. CCOC(=O)CC1=NN(c2ccccc2)C(=O)C1  19.4%
81. CC1Cc2cc(S(=O)(=O)N3CCN(C)CC3)ccc2N1C(=O)C1CC1 (stereo not shown)  19.6%
82. CC(=O)Nc1ccccc1C(F)(F)F  21.2%
83. CC1CN(C(=S)NC(=O)c2ccc(Cl)cc2)CC(C)O1 (stereo not shown)  21.6%
84. CC(C)OC(=O)c1cccc(C(=O)Nc2cccc(NC(=O)c3cccc(C(=O)OC(C)C)n3)n2)n1  23.6%
85. COc1ccc2sc(SCCCS(=O)(=O)O)[n+](CCCS(=O)(=O)[O-])c2c1  24.1%
86. Cc1ccc(CCNC(=O)CNC(=O)c2cccs2)cc1  25.4%
87. CN(C(=O)c1cccs1)c1ccc(OCC(=O)N2CCC(C(N)=O)CC2)cc1  30%
88. CCOC(=O)C1=C(C)N(CCCC(=O)O)C(=O)NC1c1cccs1 (stereo not shown)  30.9%
